The values that follow come from the supplement of paper PMC4604168 (melanoma cell lines).

The structures appear in SMILES notation. The list shows a part of the results. Single values are uncertain, as repeats are few or missing.
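Further: cells treated in 1,536-well plates, then fixed and DAPI-stained, with nuclei counted from automated high-throughput microscope images.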

The test system of this assay is C32. The assay is described as follows: cell count relative to DMSO control; melanoma cells; higher = more viable cells. Conditions: library dose: standard library concentration; 72 h.
`NC(=O)c1ccc(N(C(N)=O)c2c(F)cccc2F)nc1-c1ccc(F)cc1F` + CC(C)C[C@H](NC(=O)[C@H](Cc1ccccc1)NC(=O)c1cnccn1)B(O)O [Bortezomib] (first compound 2 µM, partner dose 0.005 µM): the cell count turned out to be 19.1%.
In the case of `CCCCCCCCc1ccc(CCC(N)(CO)CO)cc1` [fingolimod] + c1cc(-c2cnn3cc(-c4ccc(OCCN5CCCCC5)cc4)cnc23)ccn1 [Dorsomorphin] (first compound 10 µM, partner dose 2 µM) it was 4.38%; in that of `CN(NC(=O)CC(=O)NN(C)C(=S)c1ccccc1)C(=S)c1ccccc1` + N#Cc1c(O)c2c(-c3ccc(-c4ccccc4O)cc3)csc2[nH]c1=O [A769662] (first compound 0.03 µM, partner dose 10 µM), 43%; in that of `CCCCCCCCc1ccc(CCC(N)(CO)CO)cc1` [fingolimod] + COc1cc2ncnc(Nc3ccc(Oc4ccccc4)cc3)c2cc1OC [SrcI1] (first compound 10 µM, partner dose 10 µM), 1.5%.
In the case of `CC(C)(C)c1cnc(CSc2cnc(NC(=O)C3CCNCC3)s2)o1` + COc1cc2c(Oc3ccc4[nH]c(C)cc4c3F)ncnc2cc1OCCCN1CCCC1 [cediranib] (first compound 0.05 µM, partner dose 2 µM) it was 65.3%.
In turn, `NC(=O)c1ccc(N(C(N)=O)c2c(F)cccc2F)nc1-c1ccc(F)cc1F` + Oc1cc(-c2nc(-c3ccccc3)[nH]c2-c2ccncc2)ccc1Cl [L779450] (first compound 2 µM, partner dose 1 µM) gave a cell count of 79.7%.
In the case of `CCc1ccc(CCOc2ccc(CC3SC(=O)NC3=O)cc2)nc1` (stereo not drawn) [pioglitazone] + COc1ccc(COc2ccc(Cc3cnc(N)nc3N)cc2OC)cc1 [GW2580] (first compound 10 µM, partner dose 5 µM) it was 118%; in that of `NC(=O)c1ccc(N(C(N)=O)c2c(F)cccc2F)nc1-c1ccc(F)cc1F` + CCN(CC)CCNC(=O)c1c(C)[nH]c(/C=C2\C(=O)Nc3ccc(F)cc32)c1C [sunitinib] (first compound 2 µM, partner dose 2 µM), 77.3%; in that of `NC(=O)c1ccc(N(C(N)=O)c2c(F)cccc2F)nc1-c1ccc(F)cc1F` + Nc1cccc2c1CN(C1CCC(=O)NC1=O)C2=O [lenalidomide] (first compound 2 µM, partner dose 5 µM), 97%.
Under `COc1cc2c(Oc3ccc4[nH]c(C)cc4c3F)ncnc2cc1OCCCN1CCCC1` [cediranib] + O=C(Nc1ccccc1)c1cc([N+](=O)[O-])ccc1Cl [GW9662] (first compound 2 µM, partner dose 10 µM) stands 69.4%; under `NC(=O)c1ccc(N(C(N)=O)c2c(F)cccc2F)nc1-c1ccc(F)cc1F` + CS(=O)(=O)CCNCc1ccc(-c2ccc3ncnc(Nc4ccc(OCc5cccc(F)c5)c(Cl)c4)c3c2)o1 [lapatinib] (first compound 2 µM, partner dose 4 µM), 98.8%; under `NC(=O)c1ccc(N(C(N)=O)c2c(F)cccc2F)nc1-c1ccc(F)cc1F` + C[C@]1(O)C[C@@H](c2nc(-c3ccc4ccc(-c5ccccc5)nc4c3)c3c(N)nccn32)C1 [OSI906] (first compound 2 µM, partner dose 2 µM), 124%.
Under `CC(C)(C)c1cnc(CSc2cnc(NC(=O)C3CCNCC3)s2)o1` + c1cc(-c2cnn3cc(-c4ccc(OCCN5CCCCC5)cc4)cnc23)ccn1 [Dorsomorphin] (first compound 0.05 µM, partner dose 2 µM) stands 23.8%.
As for `NC(=O)c1ccc(N(C(N)=O)c2c(F)cccc2F)nc1-c1ccc(F)cc1F` + Cc1cc(Nc2cc(N3CCN(C)CC3)nc(/C=C/c3ccccc3)n2)n[nH]1 [ENMD2076] (first compound 2 µM, partner dose 0.2 µM), the cell count was 106%.
Under `NC(=O)c1ccc(N(C(N)=O)c2c(F)cccc2F)nc1-c1ccc(F)cc1F` + Cn1cncc1[C@@](N)(c1ccc(Cl)cc1)c1ccc2c(c1)c(-c1cccc(Cl)c1)cc(=O)n2C [tipifarnib] (first compound 2 µM, partner dose 0.05 µM) stands 97.7%; under `NC(=O)c1ccc(N(C(N)=O)c2c(F)cccc2F)nc1-c1ccc(F)cc1F` + Cn1c(Nc2ccc(C(F)(F)F)cc2)nc2cc(Oc3ccnc(-c4ncc(C(F)(F)F)[nH]4)c3)ccc21 [CHIR265] (first compound 2 µM, partner dose 0.4 µM), 84.5%; under `NC(=O)c1ccc(N(C(N)=O)c2c(F)cccc2F)nc1-c1ccc(F)cc1F` + C=CCNC1=C2C[C@@H](C)C[C@H](OC)[C@H](O)[C@@H](C)/C=C(\C)[C@H](OC(N)=O)[C@@H](OC)/C=C\C=C(/C)C(=O)NC(=CC1=O)C2=O [Tanespimycin] (first compound 2 µM, partner dose 0.01 µM), 34%.
For the compound `CCCCCCCCc1ccc(CCC(N)(CO)CO)cc1` [fingolimod] + O=C(O)c1ccc2c(c1)nc(Nc1cccc(Cl)c1)c1ccncc12 [CX4945] (first compound 10 µM, partner dose 2 µM), the cell count stood at 28.9%.
In the case of `CCCCCCCCc1ccc(CCC(N)(CO)CO)cc1` [fingolimod] + C[C@@H](Oc1cc(-c2cnn(C3CCNCC3)c2)cnc1N)c1c(Cl)ccc(F)c1Cl [Crizotinib] (first compound 10 µM, partner dose 1 µM) it was 16.8%; in that of `CN(NC(=O)CC(=O)NN(C)C(=S)c1ccccc1)C(=S)c1ccccc1` + O=C(Nc1ccccc1)c1cc([N+](=O)[O-])ccc1Cl [GW9662] (first compound 0.03 µM, partner dose 10 µM), 29%; in that of `CC(C)(C)c1cnc(CSc2cnc(NC(=O)C3CCNCC3)s2)o1` + NCC(=O)Nc1ccc(-n2nc(C(F)(F)F)cc2-c2ccc3c(ccc4ccccc43)c2)cc1 [OSU03012] (first compound 0.05 µM, partner dose 5 µM), 60.4%.
On to `NC(=O)c1ccc(N(C(N)=O)c2c(F)cccc2F)nc1-c1ccc(F)cc1F` + CCN(CC)CCCCNc1ncc2cc(-c3cc(OC)cc(OC)c3)c(NC(=O)NC(C)(C)C)nc2n1 [PD173074] (first compound 2 µM, partner dose 0.5 µM), for which the cell count stood at 111%.
In the case of `CCCCCCCCc1ccc(CCC(N)(CO)CO)cc1` [fingolimod] + CC(=O)c1c(C)c2cnc(Nc3ccc(N4CCNCC4)cn3)nc2n(C2CCCC2)c1=O [palbociclib] (first compound 10 µM, partner dose 0.2 µM) it was 25.5%; in that of `CCCCCCCCc1ccc(CCC(N)(CO)CO)cc1` [fingolimod] + COc1ccc(-c2ccc3c(N4CCOCC4)nc(N4C[C@@H](C)O[C@@H](C)C4)nc3n2)cc1CO [KU0063794] (first compound 10 µM, partner dose 0.1 µM), 5.89%; in that of `NC(=O)c1ccc(N(C(N)=O)c2c(F)cccc2F)nc1-c1ccc(F)cc1F` + Cc1ccc(NC(=O)c2cccc(N(C)C)c2)cc1NC(=O)c1ccc(O)cc1 [ZM336372] (first compound 2 µM, partner dose 10 µM), 82.8%.
Under `CCCCCCCCc1ccc(CCC(N)(CO)CO)cc1` [fingolimod] + CC(=O)O[C@@]12CO[C@@H]1C[C@H](O)[C@@]1(C)C(=O)[C@H](O)C3=C(C)[C@@H](OC(=O)[C@H](O)[C@@H](NC(=O)OC(C)(C)C)c4ccccc4)C[C@@](O)([C@@H](OC(=O)c4ccccc4)[C@H]21)C3(C)C [Docetaxel] (first compound 10 µM, partner dose 0.0005 µM) stands 14.1%; under `CC(C)(C)c1cnc(CSc2cnc(NC(=O)C3CCNCC3)s2)o1` + O=C(O)C(=O)Nc1sc2c(c1C(=O)O)CCNC2 [TCS401] (first compound 0.05 µM, partner dose 8.33333 µM), 109%.
In the case of `CCc1ccc(CCOc2ccc(CC3SC(=O)NC3=O)cc2)nc1` (stereo not drawn) [pioglitazone] + N#Cc1c(O)c2c(-c3ccc(-c4ccccc4O)cc3)csc2[nH]c1=O [A769662] (first compound 10 µM, partner dose 10 µM) it was 88.4%; in that of `CCCCCCCCc1ccc(CCC(N)(CO)CO)cc1` [fingolimod] + OCCn1cc(-c2cnc3nnn(Cc4ccc5ncccc5c4)c3n2)cn1 [PF04217903] (first compound 10 µM, partner dose 5 µM), 5.82%.
Turning to `Cc1ccc(NC(=O)c2cccc(N(C)C)c2)cc1NC(=O)c1ccc(O)cc1` + Cc1cc(N2CCOCC2)cc2[nH]c(-c3c(NC[C@@H](O)c4cccc(Cl)c4)cc[nH]c3=O)nc12 [BMS536924] (first compound 10 µM, partner dose 1 µM), the cell count turned out to be 102%.
Under `COc1cc2c(Oc3ccc4[nH]c(C)cc4c3F)ncnc2cc1OCCCN1CCCC1` [cediranib] + Oc1nc(-c2ccc(C(F)(F)F)cc2)nc2c1CSCC2 [XAV939] (first compound 2 µM, partner dose 10 µM) stands 101%; under `CCCCCCCCc1ccc(CCC(N)(CO)CO)cc1` [fingolimod] + N#Cc1c(O)c2c(-c3ccc(-c4ccccc4O)cc3)csc2[nH]c1=O [A769662] (first compound 10 µM, partner dose 10 µM), 6.93%.
In the case of `CN(NC(=O)CC(=O)NN(C)C(=S)c1ccccc1)C(=S)c1ccccc1` + CCCCCCCCCCCC1=C(O)C(=O)C=C(O)C1=O [Embelin] (first compound 0.03 µM, partner dose 6 µM), the cell count amounted to 44.4%.
